In PubChem BioAssay AID485344 (National Center for Advancing Translational Sciences (NCATS), 2010):
The campaign covered roughly 340,000 compounds. About 6,900 (2%) were called active. No stated cut-off is given here; in the data, active means inhibition above about 30%; inactive means below that, where a call was filed. The list shows a part of the results, in another mix than the full data. The source gives no active or inactive call for entries shown without one.

biological target: D(2) dopamine receptor (Homo sapiens) (UniProt P14416); assay: HTS Assay for Allosteric Antagonists of the Human D2 Dopamine Receptor: Primary Screen for Antagonists; settings: HEK293 TREx D2 cells, calcium flux, dopamine EC80; at 10 µM; stronger effect = higher value; further: 0% is about no effect
Chain of UniProt P14416 (P14416 whole entry, looked up): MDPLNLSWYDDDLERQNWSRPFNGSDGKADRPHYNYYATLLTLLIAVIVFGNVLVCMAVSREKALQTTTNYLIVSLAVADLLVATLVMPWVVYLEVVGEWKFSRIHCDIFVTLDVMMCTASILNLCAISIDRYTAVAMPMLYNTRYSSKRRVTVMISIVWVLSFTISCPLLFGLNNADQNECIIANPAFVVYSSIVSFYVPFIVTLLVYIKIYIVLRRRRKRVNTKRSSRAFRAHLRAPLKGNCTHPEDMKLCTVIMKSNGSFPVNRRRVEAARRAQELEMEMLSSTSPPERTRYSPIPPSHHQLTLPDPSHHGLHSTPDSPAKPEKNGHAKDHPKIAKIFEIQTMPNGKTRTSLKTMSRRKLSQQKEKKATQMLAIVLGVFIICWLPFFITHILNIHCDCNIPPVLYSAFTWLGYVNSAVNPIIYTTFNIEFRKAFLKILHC
In short: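 Cells plated overnight at 30 C with tetracycline; no-wash calcium dye, 30–90 min RT; 10 s baseline; compound pinned; 180 s read; EC80 dopamine added; another 180 s read.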

| SMILES | inhibition |
| --- | --- |
| Cc1cccc(-c2noc(CN(C(=O)COc3ccc(Br)cc3C)C(C)C)n2)c1 | -5.15% |
| OCCCc1nc2ccccc2n1CCCCOc1ccccc1 | -1.55% |
| CCn1c(=O)n(CC)c2cc(N3CCCCC3)c(NC(=O)Nc3cc(C)cc(C)c3)cc21 | 4.66% |
| CCn1cc(C(=O)N2CCN(c3cc(C)ccc3C)CC2)c(=O)c2cc(S(=O)(=O)N3CCOCC3)ccc21 | 10.8% |
| COc1ccc(Cl)cc1NC(=O)Cn1c(=O)n(Cc2ccco2)c(=O)c2cccnc21 | -3.73% |
| CCN(Cc1ccccc1)C(=O)c1nc(-c2cccc(F)c2)n2c1CCCCC2 | 13.4% |
| Cc1cc(C)c(CSc2nnc(C)n3c2cc2occc23)c(C)c1 | -3.16% |
| COCCCNC(=O)C1CCCN(C(=O)c2cnn(-c3ccc(F)cc3)c2-n2cccc2)C1 (stereo not drawn) | -0.918% |
| Cc1ccn2c(Nc3ccccc3C)c(-c3ccccn3)nc2c1 | -12.4% |
| Cc1ccc(SCc2nc(-c3ccc(C(=O)NCc4ccc(Cl)cc4)cc3)oc2C)cc1 | 8.24% |
| COc1cc(C(=O)Nc2nc3nc(-c4ccccc4)cc(=O)n3[nH]2)cc(OC)c1OC | -1.91% |
| Cc1ccn2c(=O)cc(CSc3nnc(NC(=O)c4ccccc4Cl)s3)nc2c1 | -0.155% |
| COc1cc(NC(=O)c2noc3c2CSc2ccccc2-3)cc(OC)c1OC | 9.17% |
| O=C(NC1CCCCC1)c1cc(Nc2cccc(C(F)(F)F)c2)nc2ccccc12 | -4.42% |
| CCOC(=O)c1ccccc1NC(=O)CCOc1ccccc1 | -2.42% |
| Cc1cccc(N2CCN(C(=O)NCc3noc4ccccc34)CC2)c1C | -10% |
| COc1ccc(CNC(=O)c2cc3c(=O)[nH]c4ccccc4c3s2)cc1 | -9.86% |
| CCc1ccccc1NC(=O)c1nnn(-c2ccc(F)cc2)c1C | -1.52% |
| COc1cc2ccccc2cc1C(=O)Nc1ccc2oc(-c3ccc(F)cc3)nc2c1 | -2.43% |
| CC1CCN(S(=O)(=O)c2ccc3c(c2)oc(=O)n3CC(=O)NCc2ccc(F)cc2)CC1 | 1.63% |
| Cc1cc(C)cc(-n2c(SCC(=O)N3CCCCC3)nc3c([nH]c4ccccc43)c2=O)c1 | 8.66% |
| CCOc1ccc(NC(=O)Cn2c(=O)n(Cc3ccco3)c(=O)c3oc4ccccc4c32)cc1 | 3.39% |
| O=C(Nc1ccc(Br)c2cccnc12)c1cccc2ccccc12 | -2.22% |
| Cc1cc(C)cc(NC(=O)CCC(=O)N2Cc3ccccc3Oc3ncccc32)c1 | 1.84% |
| Cc1ccc(CCNC(=O)c2cc3sccc3n2Cc2ccc(C)cc2)cc1 | 10.3% |

| SMILES | inhibition |
| --- | --- |
| Cc1c(Cl)cccc1-c1ccc(CNc2ccc3[nH]c(=O)[nH]c3c2)o1 | 8.6% |
| Cc1c(Cl)ccc2sc(NC(=O)c3ccc(S(=O)(=O)N4CCCc5ccccc54)cc3)nc12 | 17% |
| CCCc1cnc2c(c1SCC(=O)N(C)c1ccccc1)c(=O)n(C)c(=O)n2C | -14.8% |
| COc1cccc(CC(=O)Nc2sc3c(c2C(N)=O)CCCC3)c1 | active: 39.3% |
| COc1ccc(-n2nc3ccc(NC(=O)c4ccc(-c5cc(Cl)ccc5Cl)o4)cc3n2)cc1 | -3.21% |
| Cc1c(NC(=O)c2cccnc2Cl)c(=O)n(-c2ccccc2)n1C | active: 35.9% |
| Clc1cccc(N2CCN(c3nc4ccccc4n4cnnc34)CC2)c1 | -2.89% |
| C=CCc1ccccc1OCCSc1nc(-c2ccc(C(C)(C)C)cc2)nc2cc(=O)[nH]n12 | -0.887% |
| COc1ccc(NC(=O)CCc2nnc3n(C)c(=O)c4sccc4n23)cc1 | -14.4% |
| COc1ccc(-n2ccnc(NCc3ccc(Cl)cc3)c2=O)cc1 | 4.19% |
| Cc1ccccc1-c1nc(C#N)c(N2CCC(C)CC2)o1 | active: 30.7% |
| CC1CN(C(=O)Nc2ccc(C(=O)NCCc3ccccc3)cc2)c2ccccc2S1 (stereo not drawn) | 6.32% |
| CCOc1cc(-c2ccc(OC(=O)c3ccccc3F)cc2)cc(=O)c2c(C)oc(C)c12 | -4.21% |
| CCN(Cc1ccccc1)C(=O)c1c(C)oc2ncn(C)c(=O)c12 | 4.92% |
| CCOc1ccc(C(=O)Nc2cc(-c3nc4ccccc4o3)ccc2C)cc1Cl | 0.779% |
| Cc1cc(C)nc(NS(=O)(=O)c2ccc(NC(=O)COc3ccc(Cl)cc3C)cc2)n1 | -10.4% |
| O=C(CSc1nccn1Cc1ccccc1)NCc1ccc(F)cc1 | -1.74% |
| O=C(NCc1ccc(F)cc1)c1ccc(CSCc2cccc(Cl)c2)o1 | -19.3% |
| COCCNC(=O)Cc1ccc(NC(=O)N2CCCCc3ccccc32)cc1 | 19.4% |
| COC(=O)c1scc(-c2ccccc2)c1S(=O)(=O)Nc1ccccc1 | -27.4% |
| COc1ccc(-n2c(/C=C/c3ccccc3F)nc3cc(OC)c(OC)cc3c2=O)cc1Cl | 9.22% |
| COCCNC(=O)c1cnn(-c2ccc(C)cc2C)c1C1CCN(C(=O)OC(C)(C)C)CC1 | -5.59% |
| Cn1cc(CN(C(=O)Nc2ccc(Cl)c(Cl)c2)C2CCCCC2)c2ccccc21 | 4.68% |
| Cc1ccc(NC(=O)CSc2ncc3c(n2)-c2ccccc2N(Cc2cccc(F)c2)S3(=O)=O)cc1F | 2.33% |
| CCN(CC)C(=O)C1CCN(S(=O)(=O)c2ccc3c(c2)CCCN3C(C)=O)CC1 | 7.04% |

| SMILES | inhibition |
| --- | --- |
| Cc1ccc(-c2cc(C(F)(F)F)n3nc(C(=O)Nc4ccc(Cl)cc4Cl)cc3n2)cc1 | -14.2% |
| Cc1ccc(N2CC(NC(=O)/C=C\c3ccc4c(c3)OCO4)CC2=O)cc1C (stereo not drawn) | 8.05% |
| O=C1c2ccccc2C(=O)C1(c1ccccc1)N1CCN(c2cccc(Cl)c2)CC1 | -10.4% |
| COC(=O)c1sccc1NC(=O)c1ccc(C)s1 | active: 32.8% |
| Cc1ccc2nc(-c3ccsc3)c(Nc3ccccc3C)n2c1 | 2.33% |
| COc1ccccc1/C=C/c1nc(C#N)c(N2CCCCC2)o1 | 2.18% |
| Cc1nc2nncn2c(N2CCN(c3ccccc3)CC2)c1C | -2.05% |
| Cc1ccc(NC(=O)CC(C)S(=O)(=O)c2ccc3c(c2)NC(=O)CO3)c(C)c1 (stereo not drawn) | -4.58% |
| Cc1c(C(=O)Nc2cccc(-c3nnc4n3CCCCC4)c2)oc2ccccc12 | active: 60% |
| COCC(=O)Oc1c(Sc2ccc(C)cc2)c(C)nn1C(C)(C)C | 25.2% |
| COc1cc(-c2ccno2)ccc1S(=O)(=O)N1CCN(c2cc(C)ccc2C)CC1 | -1.88% |
| COc1cccc(N2CC(NC(=O)C(c3ccccc3)c3ccccc3)CC2=O)c1 (stereo not drawn) | 12% |
| CC(C)c1ccc(S(=O)(=O)c2nnn3c2nc(NCCc2ccccc2)c2sccc23)cc1 | -24.3% |
| Cc1ccc(CNC(=O)c2cc3sccc3n2Cc2ccc(Cl)cc2)cc1 | 5.65% |
| CCCn1c(=O)c2sccc2n2c(CCCC(=O)NCCc3ccc(Cl)cc3)nnc12 | -3.24% |
| CC(CCc1ccccc1)NC(=O)Cn1ncc2c3ccccc3n(Cc3ccc(F)cc3)c2c1=O (stereo not drawn) | -11.7% |
| CC(=O)Nc1ccc(S(=O)(=O)NCC2CCC(C(=O)NCCc3ccccc3)CC2)cc1 (stereo not drawn) | -25.3% |
| Cc1nn(C(=O)c2cccc([N+](=O)[O-])c2C)c(C)c1S(=O)(=O)N1CCOCC1 | 24.4% |
| Cc1ccc(NC(=O)Cc2c(C(=O)O)c(C)cn2C)cc1Cl | 2.71% |
| CC(C)OCCCn1c(SCc2ccccc2C#N)nc2c(sc3ccccc32)c1=O | -4.57% |
| O=C(c1ccco1)N1CCN(Cc2ccccc2F)CC1 | active: 80.3% |
| CN(C(=O)C1CCCN(c2ncnc3c2nc2n3CCCCC2)C1)c1ccccc1F (stereo not drawn) | -1.52% |
| COc1cc(OC)c(NC(=O)CN2C(=O)CCn3nc(-c4cccn4C)cc32)cc1Cl | 18.3% |
| CCOc1ccc(NC(=O)C(=O)NCCc2csc(-c3ccc(F)cc3)n2)cc1 | -8.21% |
| c1ccc(-n2ncc3c(NC4CCCC4)ncnc32)cc1 | 15.4% |

| SMILES | inhibition |
| --- | --- |
| CCc1cccc(NC(=O)Nc2ccc3c(c2)N(C)C(=O)c2ccccc2S3)c1 | 5.67% |
| COc1ccc(NS(=O)(=O)c2cc3[nH]c(=O)c(=O)[nH]c3cc2C)cc1Cl | 17% |
| CCOc1ccc(/C=C/c2nc(C#N)c(N3CCN(c4ccc(OC)cc4)CC3)o2)cc1 | 4.73% |
| CCC(=O)N1CCc2cc(Br)cc(S(=O)(=O)CCC(=O)NCCc3ccc(OC)c(OC)c3)c21 | 3.28% |
| Cn1cc(S(=O)(=O)N2CCCCCC2)cc1C(=O)N1CCN(c2ccc(F)cc2)CC1 | -5.31% |
| Cc1cc(OCC(=O)Nc2ccc(-c3nc4cc(Cl)ccc4o3)cc2)cc(C)c1Cl | -0.562% |
| Cn1c(=O)c(NCCO)c2c3c(cccc31)C(=O)c1ccccc1-2 | active: 82.4% |
| NS(=O)(=O)c1ccc(CCNC(=O)C2COc3ccccc3C2)cc1 (stereo not drawn) | 0.362% |
| CCc1ccc(C2CC(=O)c3c([nH]c(C(=O)OCC4CCCCC4)c3C)C2)cc1 (stereo not drawn) | -0.874% |
| O=C(COc1ccccc1)NCc1ccc2c(c1)CCN2C(=O)c1ccc(F)cc1 | -5% |
| Cc1ccc(Cn2c(=O)c3cccnc3n(CC(=O)Nc3cccc(C(F)(F)F)c3)c2=O)cc1 | -14.1% |
| Cc1ccc(-n2ncc3c(N4CCCCCC4)ncnc32)cc1 | -5.87% |
| COc1cc(NC(=O)CCn2c(-c3ccccc3)cc(C(C)=O)c2C)cc(OC)c1 | -0.921% |
| COc1ccc(NC(=O)C(NS(=O)(=O)c2ccc3c(c2)CCCC(=O)N3)C(C)C)c(OC)c1 (stereo not drawn) | -8.54% |
| Cc1c(Cl)cccc1NC(=O)CSc1ncnc2c1sc1ccccc12 | 14.9% |
| Cc1cc(=O)oc(C)c1C(=O)NCCCN1CCN(c2ccccc2F)CC1 | active: 46.8% |
| Cc1cccc(CNC(=O)c2oc3c(c2C)-c2nn(Cc4ccccc4Cl)cc2CC3)c1 | 1.62% |
| Cc1cc(NC(=O)c2ccc(Br)o2)cc(-c2nc3ccccc3o2)c1O | -11.1% |
| Cc1ccc(-n2nc(C(=O)N3CCN(c4cc(Cl)ccc4C)CC3)c(=O)n(C)c2=O)cc1 | -19.9% |
| CCCCNC(=O)C1CCCN(Cc2nc(-c3ccc(Cl)cc3)oc2C)C1 (stereo not drawn) | -15.5% |
| CCc1ccc(C(=O)c2cn(CC(=O)Nc3ccc(F)c(F)c3)c3cc(OC)c(OC)cc3c2=O)cc1 | -9.02% |
| CC(C)CCNC(=O)c1cccc(Nc2nc3ccccc3n3nnnc23)c1 | 20.2% |
| CCCCSCCCNC(=O)c1ccc2c(c1)N(CC)C(=O)c1ccccc1S2=O (stereo not drawn) | active: 30.3% |
